According to the supplement of paper PMC3334620:
Whole data set: some 33,000 sequences, median “E-score (-0.5 to 0.5)” near -0.032, cut for the highest 2% near 0.36. The list shows a part of the results.

Biological target: T1, Sko1 (UniProt Q02100)
T1 sequence: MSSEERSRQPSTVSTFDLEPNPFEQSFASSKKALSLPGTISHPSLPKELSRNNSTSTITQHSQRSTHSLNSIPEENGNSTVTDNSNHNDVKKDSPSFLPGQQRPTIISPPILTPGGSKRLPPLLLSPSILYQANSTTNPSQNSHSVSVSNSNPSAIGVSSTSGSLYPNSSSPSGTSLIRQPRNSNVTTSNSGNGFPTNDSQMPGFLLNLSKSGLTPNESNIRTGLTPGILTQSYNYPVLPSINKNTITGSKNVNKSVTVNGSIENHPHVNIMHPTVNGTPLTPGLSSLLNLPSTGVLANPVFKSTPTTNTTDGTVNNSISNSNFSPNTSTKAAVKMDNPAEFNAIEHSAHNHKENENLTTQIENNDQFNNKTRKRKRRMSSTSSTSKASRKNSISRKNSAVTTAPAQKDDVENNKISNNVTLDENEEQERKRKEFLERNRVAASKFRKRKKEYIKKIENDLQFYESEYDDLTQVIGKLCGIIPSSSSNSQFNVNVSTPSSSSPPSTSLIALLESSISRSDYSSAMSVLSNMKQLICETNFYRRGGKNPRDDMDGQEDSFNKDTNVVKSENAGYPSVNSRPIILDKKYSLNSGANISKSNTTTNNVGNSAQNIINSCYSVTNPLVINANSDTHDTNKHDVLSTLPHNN
Assay: PBM E-score (8-mer binding enrichment) (E-score (-0.5 to 0.5)); higher = stronger / more preferred TF binding; most listed sequences are background and not binding sites
Conditions: protein concentration: 200 nM; construct: GST-full length
Protocol: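 Universal 'all 10-mer' protein binding microarrays (Agilent AMADID 015681) probed with GST-tagged S. cerevisiae TFs (full-length or DBD) made by in vitro transcription/translation (PURExpress), about 100-200 nM. Bound TF was detected with fluorescent anti-GST. Each ungapped 8-mer (which stands for itself and its reverse complement) is scored by the PBM enrichment score (E-score), a modified Wilcoxon-Mann-Whitney statistic from -0.5 to +0.5, computed with the Universal PBM Analysis Suite. Scale: above 0.35 generally sequence-specific binding.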

Row | Sequence | PBM E-score
1 | AAAAGGGA | -0.218
2 | CGCGTTGA | 0.088
3 | CCGAAGAC | -0.112
4 | ATCCAGGC | -0.312
5 | CTCTAGCC | -0.238
6 | GGAAGCCC | -0.194
7 | CTCGCCGC | -0.178
8 | CGTAGAGA | 0.154
9 | AACCCGAG | -0.278
10 | GGTCCCTA | -0.256
11 | CGATATAC | 0.0326
12 | GCCCTCAA | -0.11
13 | CTGTCGTA | 0.282
14 | ACCGGAGA | -0.156
15 | GTTTTACA | 0.0266
16 | CTCTATTC | -0.141
17 | GTAATGAC | 0.399
18 | ATCCACGC | -0.0735
19 | ACGTGCTA | 0.352
20 | CACTGCGA | 0.135
21 | CTTCTCAA | -0.04
22 | GTAAGAGA | 0.143
23 | AGGAGACA | 0.0164
24 | CTGGGTTC | -0.145
25 | ACCTTTAT | -0.00087

Row | Sequence | PBM E-score
26 | GCGTACCC | -0.00205
27 | CAATTCGC | 0.11
28 | GGCGGAGA | -0.188
29 | GCATCGGC | -0.144
30 | GTAGGTTA | 0.148
31 | GTCTAAGA | 0.0886
32 | GTGGTGGA | -0.0823
33 | CCCACAGA | 0.0156
34 | ATCAGATA | -0.0378
35 | CGGATAGA | 0.0779
36 | ATCTTAGG | -0.229
37 | AACCTCGT | 0.035
38 | AGACTAGG | -0.118
39 | GGTACCTA | -0.00748
40 | CGATTAGA | 0.162
41 | ACCCCCCA | -0.267
42 | CGACTGAA | -0.111
43 | CTGTACTC | -0.332
44 | ACGCTTCC | -0.0137
45 | ACAATGGA | 0.0553
46 | CGCTCCGA | -0.137
47 | GGTGGCCA | -0.0724
48 | GAAAGATA | 0.228
49 | CGTACTAA | 0.334
50 | AGTGGGCG | -0.0257

Row | Sequence | PBM E-score
51 | AATCCGAC | 0.0424
52 | CAAGCGTG | -0.0414
53 | TCTATACA | -0.071
54 | GACTAAAC | 0.0308
55 | CCGTCCCA | -0.0971
56 | ATGCTCGA | 0.00694
57 | ATGATAAT | 0.205
58 | GGCCTGGA | -0.364
59 | CACAAGTC | -0.149
60 | CTTCGCAA | 0.133
61 | GGGCCATA | -0.18
62 | TATAGCGA | 0.00722
63 | ACGGATAC | 0.125
64 | CTTTGACA | 0.0712
65 | CACCAGCC | -0.202
66 | ACCGGTAG | -0.399
67 | AAACATGA | 0.168
68 | TCTCTTAA | 0.0633
69 | AAAGTGGC | -0.0872
70 | GATGGGTA | -0.0503
71 | AGTGTCCC | -0.212
72 | GCTCATAA | -0.0651
73 | ATCAGGTC | -0.138
74 | AATAATCG | 0.115
75 | GCGACTAA | 0.0128

Row | Sequence | PBM E-score
76 | CGGTTGTC | -0.0935
77 | GCCTGTAA | -0.205
78 | ATATCTAC | 0.0646
79 | ATCTTCCA | 0.0587
80 | AGTTATAG | 0.104
81 | CCCAGGCC | -0.264
82 | AGCTCGAC | 0.0759
83 | ATTACCTA | 0.293
84 | CGGGTAGC | -0.343
85 | ATATAGCC | 0.0744
86 | ACGTTTGA | 0.299
87 | GCCAGAAC | -0.282
88 | CTTGGCAC | -0.0128
89 | CTTGGCCA | -0.115
90 | AGCTTTAC | 0.105
91 | AGGAAGAA | -0.0819
92 | CGTTGACA | 0.0275
93 | GAAAGAAC | -0.0885
94 | ACGGGGAC | -0.287
95 | AGTGAGAG | -0.129
96 | CAGAGACG | 0.0896
97 | GCCCAGCA | -0.226
98 | ACCGCGGA | -0.0522
99 | AGATAACC | -0.249
100 | ACTACCAA | -0.0265

Row | Sequence | PBM E-score
101 | ATGGCCGG | -0.3
102 | CCCGCTCA | -0.307
103 | AGAAGGAG | -0.164
104 | AACGCCAA | 0.0776
105 | GAGTGATA | 0.088
106 | GACTGGCA | -0.258
107 | CAATTGGG | -0.277
108 | AGCAATCG | 0.0261
109 | CTGGGCGC | -0.248
110 | AGGATTGA | 0.158
111 | AGAACCAA | -0.14
112 | ACCCAATC | -0.00096
113 | CTAACCGA | -0.177
114 | CTCTCTGA | -0.181
115 | CATTGTTA | 0.108
116 | CGCATGGA | -0.0774
117 | CATTATGG | -0.0468
118 | CCTTCGCG | -0.265
119 | ATCTTGTC | 0.0024
120 | CATTCCAG | -0.0293
121 | GGAACCCA | -0.118
122 | AGTGTGGC | 0.061
123 | ATGTGGCC | -0.221
124 | CAAAACCG | 0.0409
125 | GATCGAGA | -0.0936

Row | Sequence | PBM E-score
126 | AAGCGAGG | -0.214
127 | ATGCAGCC | 0.0314
128 | AGACAGAG | -0.188
129 | CGGAATGA | 0.107
130 | CGACACAC | 0.219
131 | ATTGCGCA | 0.251
132 | ATTGGTTC | 0.0977
133 | ATACGGTC | -0.0959
134 | GGACTCGA | -0.342
135 | CGAAGCTC | -0.138
136 | TACCACGA | 0.109
137 | ACACCACC | -0.217
138 | GGCTTCTA | -0.0573
139 | ATTCTGTG | 0.0485
140 | GCCATTCC | -0.127
141 | TAACATAA | 0.275
142 | GACCGCTA | -0.0571
143 | GAATGCTA | -0.0644
144 | CCTTCATC | -0.13
145 | GGTATAAA | -0.0207
146 | CGGCAACC | -0.229
147 | AGGGAAAT | -0.196
148 | CAGTCTAC | -0.174
149 | ACTACTTC | -0.111
150 | TGCTCTAA | -0.0299

Row | Sequence | PBM E-score
151 | CGCTATGC | 0.147
152 | GATATATA | 0.257
153 | AGGCGCAG | -0.308
154 | AAAGGTCA | -0.0662
155 | ATGTTGCA | 0.111
156 | GTGCCACA | -0.0272
157 | TACCATAA | 0.125
158 | AGCGACGA | 0.0375
159 | GGGACGAC | -0.00738
160 | TACAATAA | 0.106
161 | GCCCAATA | -0.0368
162 | ATTGTCAC | 0.191
163 | AGAGACCG | -0.242
164 | CCTAACCA | -0.0611
165 | TCACCAGA | -0.147
166 | GGGTAGCA | -0.179
167 | CCCCGCTA | -0.118
168 | GGTCGTTA | -0.0165
169 | CATCCGAA | 0.00623
170 | CGGCCGTC | -0.264
171 | AGGCGGCG | -0.0776
172 | CACTGCCC | -0.17
